In the supplement of paper PMC4967469:
The IC50 comes from the fitted curve, where viability falls to half of the control; a fit beyond the top or the lowest dose is shown as a bound at that dose. AUC sums up the same curve from the lowest dose to the 256-fold higher top dose; it is 1 without any effect and falls as sensitivity rises. For some of these results: The top dose, if marked as inferred, is not printed in the source and was worked back from the curve model. For some of these results: Where an entry number is given, a second screen of the drug exists; the two often differ.

What was measured:
Test in all cases: Viability of human cancer cell lines after 72 h of drug (GDSC screen)
Tamoxifen = compound: CC/C(=C(\c1ccccc1)c1ccc(OCCN(C)C)cc1)c1ccccc1 [Tamoxifen]; conditions: top dose 5 µM
Procedure: (§1)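 Human cancer cell lines in 384-well plates, medium with 10% serum, drug for 72 h over a 256-fold dose range (nine 2-fold or five 4-fold steps up to the top dose). Adherent lines were fixed and stained with the nucleic acid dye Syto60, suspension lines read with resazurin; signal relative to control wells, capped at 0 and 100%. One two-parameter sigmoid per drug and line, fitted in a mixed model over all curves with the slope shared within a line.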

VNLG/124 = compound: CCCC(=O)OCc1ccc(OC(=O)/C=C(C)/C=C/C=C(C)/C=C/C2=C(C)CCCC2(C)C)cc1 [VNLG/124]; conditions: top dose 5.12 µM; top dose inferred
Procedure: as §1

Elesclomol = compound: CN(NC(=O)CC(=O)NN(C)C(=S)c1ccccc1)C(=S)c1ccccc1 [Elesclomol]; conditions: top dose 0.2 µM; top dose inferred
Procedure: as §1

HG-5-88-01 = compound: COc1cc(N2CCC(C(N)=O)CC2)ccc1Nc1nc(N)c(Cl)c(Nc2ccccc2S(=O)(=O)C(C)C)n1 [HG-5-88-01]; conditions: top dose 10 µM; top dose inferred
Procedure: as §1

Bleomycin = compound: Cc1c(N)nc([C@H](CC(N)=O)NC[C@H](N)C(N)=O)nc1C(=O)N[C@H](C(=O)N[C@H](C)[C@@H](O)[C@H](C)C(=O)N[C@H](C(=O)NCCc1nc(-c2nc(C(=O)NCCC[S+](C)C)cs2)cs1)[C@@H](C)O)[C@@H](OC1OC(CO)C(O)C(O)C1OC1OC(CO)C(O)C(OC(N)=O)C1O)c1cnc[nH]1 [Bleomycin]
Procedure: as §1

Masitinib = compound: Cc1ccc(NC(=O)c2ccc(CN3CCN(C)CC3)cc2)cc1Nc1nc(-c2cccnc2)cs1 [Masitinib]; conditions: top dose 20 µM
Procedure: as §1

LAQ824 = compound: O=C(/C=C/c1ccc(CN(CCO)CCc2c[nH]c3ccccc23)cc1)NO [LAQ824]; conditions: top dose 1.024 µM; top dose inferred
Procedure: as §1

OSI-930 = compound: O=C(Nc1ccc(OC(F)(F)F)cc1)c1sccc1NCc1ccnc2ccccc12 [OSI-930]; conditions: top dose 10.24 µM
Procedure: as §1

BX-912 = compound: O=C(Nc1cccc(Nc2ncc(Br)c(NCCc3cnc[nH]3)n2)c1)N1CCCC1 [BX-912]; conditions: top dose 10.24 µM; top dose inferred
Procedure: as §1

NSC-87877 = compound: O=S(=O)(O)c1ccc2cc(N=Nc3cc(S(=O)(=O)O)c4cccnc4c3O)ccc2c1 [NSC-87877]; conditions: top dose 16 µM; top dose inferred
Procedure: as §1

[1] = top dose 50 µM, screen: GDSC drug entry 1378, top dose inferred
[2] = top dose 64 µM, screen: GDSC drug entry 190

Row | Cell Line | AUC (Tamoxifen) | IC50 (Tamoxifen) [µM] | AUC (VNLG/124) | IC50 (VNLG/124) [µM] | AUC (Elesclomol) | IC50 (Elesclomol) [µM] | AUC (HG-5-88-01) | IC50 (HG-5-88-01) [µM] | AUC (Bleomycin; [1]) | IC50 (Bleomycin; [1]) [µM] | AUC (Bleomycin; [2]) | IC50 (Bleomycin; [2]) [µM] | AUC (Masitinib) | IC50 (Masitinib) [µM] | AUC (LAQ824) | IC50 (LAQ824) [µM] | AUC (OSI-930) | IC50 (OSI-930) [µM] | AUC (BX-912) | IC50 (BX-912) [µM] | AUC (NSC-87877) | IC50 (NSC-87877) [µM]
1 | M059J (glioma, adherent) | 0.984 | > 5 | 0.984 | > 5.12 | 0.566 | 0.0193 | 0.947 | > 10 | 0.496 | 3.04 | 0.535 | 5.02 | 0.929 | > 20 | 0.499 | 0.0637 | 0.983 | > 10.2 | 0.869 | > 10.2 | 0.853 | 14.1
2 | BICR10 (head and neck, adherent) | 0.96 | > 5 | 0.983 | > 5.12 | 0.581 | 0.0216 | 0.962 | > 10 | 0.647 | 8.55 | 0.654 | 11.5 | 0.939 | > 20 | 0.709 | 0.275 | 0.967 | > 10.2 | 0.937 | > 10.2 | 0.985 | > 16
3 | IGR-1 (melanoma, adherent) | 0.99 | > 5 | 0.988 | > 5.12 | 0.917 | > 0.2 | 0.954 | > 10 | 0.8 | 20.8 | 0.404 | 2.25 | 0.884 | 17 | 0.355 | 0.0268 | 0.982 | > 10.2 | 0.658 | 1.65 | 0.972 | > 16
4 | Hs939-T (melanoma, adherent) | 0.98 | > 5 | 0.977 | > 5.12 | 0.471 | 0.0104 | 0.879 | > 10 | 0.724 | 14.5 | 0.847 | 53.8 | 0.983 | > 20 | 0.527 | 0.0765 | 0.978 | > 10.2 | 0.986 | > 10.2 | 0.969 | > 16
5 | JHH-1 (liver, adherent) | 0.961 | > 5 | 0.963 | > 5.12 | 0.598 | 0.0238 | 0.928 | > 10 | 0.805 | 27.8 | 0.489 | 3.72 | 0.854 | 18 | 0.276 | 0.0138 | 0.978 | > 10.2 | 0.938 | > 10.2 | 0.981 | > 16
6 | TOV-21G (ovary, adherent) | 0.97 | > 5 | 0.983 | > 5.12 | 0.44 | 0.00842 | 0.983 | > 10 | 0.233 | 0.484 | 0.886 | > 64 | 0.851 | 17.5 | 0.832 | 0.736 | 0.918 | > 10.2 | 0.842 | 8.12 | 0.965 | > 16
7 | TGW (neuroblastoma, adherent) | 0.99 | > 5 | 0.958 | > 5.12 | 0.565 | 0.0183 | 0.888 | 8.47 | 0.986 | > 50 | 0.822 | 30.7 | 0.89 | 17.3 | 0.473 | 0.0547 | 0.968 | > 10.2 | 0.822 | 4.9 | 0.991 | > 16
8 | SU8686 (pancreas, adherent) | 0.984 | > 5 | 0.984 | > 5.12 | 0.468 | 0.0101 | 0.876 | > 10 | 0.829 | 36.4 | 0.374 | 1.72 | 0.89 | > 20 | 0.445 | 0.0444 | 0.971 | > 10.2 | 0.95 | > 10.2 | 0.916 | > 16
9 | KYSE-450 (oesophagus, adherent) | 0.985 | > 5 | 0.964 | > 5.12 | 0.556 | 0.0176 | 0.987 | > 10 | – | – | 0.412 | 2.34 | 0.885 | 19.7 | 0.437 | 0.0435 | 0.988 | > 10.2 | 0.884 | 10.1 | 0.965 | > 16
10 | NCI-H2122 (lung adenocarcinoma, adherent) | 0.988 | > 5 | 0.985 | > 5.12 | 0.848 | 0.135 | 0.92 | > 10 | 0.294 | 0.859 | 0.238 | 0.743 | 0.929 | > 20 | 0.263 | 0.0143 | 0.983 | > 10.2 | 0.985 | > 10.2 | 0.989 | > 16
11 | NCI-H1437 (lung adenocarcinoma, adherent) | 0.98 | > 5 | 0.981 | > 5.12 | 0.801 | 0.102 | 0.841 | 7.35 | 0.916 | > 50 | 0.287 | 0.975 | 0.829 | 13.1 | 0.323 | 0.0201 | 0.944 | > 10.2 | 0.936 | > 10.2 | 0.927 | > 16
12 | HSC-2 (head and neck, adherent) | 0.984 | > 5 | 0.989 | > 5.12 | 0.821 | 0.104 | 0.937 | > 10 | 0.159 | 0.314 | 0.439 | 2.76 | 0.973 | > 20 | 0.444 | 0.0456 | 0.984 | > 10.2 | 0.971 | > 10.2 | 0.957 | > 16
